According to patent US20260097076A1 (ELPIS BIOPHARMACEUTICALS, published 2026):

T1: Transmembrane activator and CAML interactor (TACI) on cells (UniProt O14836 1-293, limits assumed)
T1 construct: whole, on cells; also called tumor necrosis factor receptor superfamily member 13B (TNFRSF13B)
T1 sequence (looked up): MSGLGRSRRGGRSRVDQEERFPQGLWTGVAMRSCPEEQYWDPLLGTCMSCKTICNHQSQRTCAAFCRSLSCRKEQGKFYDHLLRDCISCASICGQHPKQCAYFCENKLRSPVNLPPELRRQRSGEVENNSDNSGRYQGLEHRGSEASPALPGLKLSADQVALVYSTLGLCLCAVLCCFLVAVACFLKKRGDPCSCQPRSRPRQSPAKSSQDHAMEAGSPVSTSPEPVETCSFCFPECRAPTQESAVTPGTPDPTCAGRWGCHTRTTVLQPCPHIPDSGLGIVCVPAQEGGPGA

T2: B Cell Maturation Antigen (BCMA) on cells (UniProt Q02223 1-184, limits assumed)
T2 construct: whole, on cells; One molecule is used for the recombinant (CHOK1) and the endogenous (myeloma lines) cell-surface BCMA; also called tumor necrosis factor receptor superfamily member 17 (TNFRSF17); CD269
T2 sequence (looked up): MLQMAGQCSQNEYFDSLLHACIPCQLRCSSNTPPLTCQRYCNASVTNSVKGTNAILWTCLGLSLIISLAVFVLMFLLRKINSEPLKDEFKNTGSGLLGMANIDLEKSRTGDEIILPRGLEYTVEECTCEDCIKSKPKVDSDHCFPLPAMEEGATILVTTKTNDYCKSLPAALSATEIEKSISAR

T3: Human BCMA-Fc (human, UniProt Q02223 1-54)
T3 construct: also called human BCMA-Fc protein; recombinant BCMA-Fc fusion protein; not shown: Fc part (captured by anti-human Fc antibody or Protein A)
T3 sequence (looked up): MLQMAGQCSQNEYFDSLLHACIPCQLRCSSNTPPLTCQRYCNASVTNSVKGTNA


Tests used:
[1] = target: T1, Transmembrane activator and CAML …; test: flow cytometry on JVM2 cells (endogenous TACI)
Method: (§1) Cells were spun down at 1200 rpm for 6 minutes at 4° C. to remove primary antibodies. Cells were then washed once with 200 μL of full medium per well. Samples were detected with premixed anti-His Biotin Streptavidin Alexa fluor 647 by adding 100 μL of diluted secondary antibody and incubated at 4° C. for 30 minutes in the dark. Samples were spun down at 1200 rpm for 5 minutes at 4° C. and washed twice with 200 μL of 1×PBS per well. Reconstituted samples in 200 μL of 1×PBS and read on Attune NxT cytometer. Analysis was done by Attune NxT software plotting the overlaying the histogram of anti-BCMA scFvs binding onto both negative and target cell lines. […] The BCMA cell binding affinity for exemplary anti-BCMA antibodies (in scFv format) was also generated with serial diluted scFvs as described above.
(§2) Anti-TACI scFv binders have been identified through Anti-TACI supernatant FACS screening assay with JVM2, MM1.R and RPMI8226 cell lines as described in above supernatant FACS screening assay. 200 nM of purified scFvs were subjected into FACS binding assay with TACI negative cell lines K562, H929 and TACI expressing cancer cell lines of JVM2, MM1.R, RPMI8226. The assay procedure and data analysis were described in Example 1 above.

[2] = target: T1, Transmembrane activator and CAML …; test: flow cytometry on MM1R cells (endogenous TACI)
Method: as §1, §2

[3] = target: T1, Transmembrane activator and CAML …; test: flow cytometry on MM1S cells (endogenous TACI)
[4] = target: T1, Transmembrane activator and CAML …; test: flow cytometry on RPMI8226 cells (endogenous TACI)
Method: as §1, §2

[5] = target: T2, B Cell Maturation Antigen (BCMA) on …; test: flow cytometry, serial diluted scFv on BCMA/CHOK1 cells
Method: as §1

Human BCMA-Fc [6] = target: T3, Human BCMA-Fc; test: SPR, Biacore T200, BCMA-Fc captured on Protein A chip, scFv as analyte
Method: Kinetic analysis of anti-BCMA scFvs have been assessed by SPR technology with Biacore T200. The assay was run with Biacore T200 control software version 2.0. Protein A sensor chip was used to capture Fc fusion protein in the assay. For each cycle, 1 μg/mL of human BCMA-Fc protein was captured for 60 seconds at flow rate of 10 ul/min on flow cell 2 in 1×HBSP buffer on Protein A sensor chip. 2-fold serial diluted HIS tag purified anti-BCMA scFv was injected onto both reference flow cell 1 and BCMA-Fc captured flow cell 2 for 150 seconds at flow rate of 30 ul/min followed by wash for 300 seconds. The flow cells were then regenerated with Glycine pH2 buffer (GE) for 30 seconds at flow rate of 30 ul/mins. 8 concentration points from 300-0 nM was assayed per anti-BCMA scFv in a 96 well plate. The kinetics of scFvs binding to BCMA protein was analyzed with Biacore T200 evaluation software version 3.0. The specific binding response unit was derived from subtraction of binding to reference flow cell 1 from BCMA captured flow cell 2.

Human BCMA-Fc [7] = target: T3, Human BCMA-Fc; test: ELISA, human BCMA-Fc captured by anti-human Fc, scFv detected with anti-Flag HRP
Method: An ELISA assay was developed to determine the EC₅₀ of anti-BCMA antibodies. Briefly, 384 well plate was immobilized with anti-human Fc antibody at final concentration of 2 μg/mL in 1×PBS in total volume of 25 uL per well. The plate was incubated overnight at 4° C. followed by blocking with 80 μL of superblock per well for 1 hour. Human BCMA-Fc was captured through immobilized anti-hFc antibody. Purified anti-BCMA scFvs were 2-fold serial titrated from 200 nM. 25 μL of diluted scFv was added to human BCMA immobilized wells and incubated for 1 hour with shaking. The BCMA binding was detected by adding 25 μL of anti-Flag HRP diluted at 1:5000 in 1×PBST. In between each step, the plate was washed 3 times with 1×PBST in a plate washer. The plate was then developed with 20 μL of TMB substrate for 5 mins and stopped by adding 20 μL of 2 N sulfuric acid. The plate was read at OD450 nm Biotek plate reader and then plotted in Prism 8.1 software.

EC50 [1] | EC50 [2] | EC50 [3] | EC50 [4] | EC50 [5] | Kd (Human BCMA-Fc [6]) | koff (Human BCMA-Fc [6]) | kon (Human BCMA-Fc [6]) | EC50 (Human BCMA-Fc [7]) | Binder
4.3 nM | 8.67 nM | 13.4 nM | 1.07 nM |  |  |  |  |  | TC-01 (anti-TACI antibody in scFv format) (scFv, not shown: small tags and cut ends, Human scFv from mRNA display (live cell selections), VH-(G4S)3-VL) scFv: [about 100 residues omitted here]DDGTGYNAFDIWGQGTMVTVSSGGGGSGGGGSGGGGSDIVMTQSPLSLPVTPGEPASISCRSSQSLLHSNGYNYLDWYVQKPGKPPQLLIYLASHRASGVPDRFSGSGSGTDFTLKISRVEAEDVGIYYCMQAQQTALFGPGTKVDIK
 |  |  |  | 69.7 nM | 7.68 nM | 0.000874 s⁻¹ | 114000 M⁻¹ s⁻¹ | 1.96 nM | BC-04 (anti-BCMA antibody in scFv format) (scFv, Human scFv from mRNA display, VH-(G4S)3-VL, expressed in E. coli periplasm, His-purified; not shown: C-terminal flag and 6xHis tag) scFv: EVQLVESGGGLVQPGRSLRLSCTASGFTFGDYAMSWFRQAPGKGLEWVGFIRSKAYGGTTEYAASVKGRFTISRDDSKSIAYLQMNSLKTEDTAVYYCTPGPHYDILTSNWFDPWGQGTLVTVSSGGGGSGGGGSGGGGSDIVMTHSPSSLSASVGDRVTIT[about 80 residues omitted here]FGQGTKVEIK
